Source: PubChem BioAssay AID504832 (National Center for Advancing Translational Sciences (NCATS), 2011)
Out of some 310,000 compounds screened, about 18,000 (5.8%) were called active. This list was built around the results that the source calls inconclusive (neither active nor inactive); the mix of calls is not that of the screen. Calls follow the shape of the dose curve; as a rule, active = well fitted inhibition curve with a large enough effect; inconclusive = small, poorly fitted or top-dose-only effect, or another doubt; inactive = no such curve, though single readings can be large or run the other way. No potency is given beside an inconclusive call; the fits are too rough.

Test: Primary qHTS for delayed death inhibitors of the malarial parasite plastid, 48 hour incubation
Conditions: P. falciparum luciferase growth in erythrocytes; series mostly up to 28.7 µM; activity change, negative = inhibition: at the top concentration
How it was run: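 First compound was added to culture medium, then infected red cells at 0.1% parasitemia and 2% hematocrit (final). After incubation at 37 C under 5% CO2, luciferase detection reagent was dispensed and light output recorded.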
% is scaled to controls: 0 for no effect and ±100 for the full control effect; potency is read from the fitted curve at half-maximal effect; tags tell the direction and shape of the fitted curve.

For `O=C(Nc1cccnc1)c1sc2cccc(F)c2c1Cl`, which “activity change, negative = inhibition” value is on record?
Its value is inactive: 35.4%.

For `CCOC(=O)N1CCC(N2Cc3cccc(C(=O)O)c3C2=O)CC1`, which “activity change, negative = inhibition” value is on record?
The value was inactive: -0.786%.

Which Potency does the source give for `Cc1c(C(=O)C(=O)N2c3ccccc3CC2C)c2ccccc2n1C` (stereo unspecified) here?
Its Potency is inconclusive [inhibitor, partial curve, poor fit].

Which “activity change, negative = inhibition” value does the source give for `CCn1c(SCC(=O)NCC2CCCO2)nc2ccccc21` (stereo unspecified) here?
Its value is inactive: -21%.

Which Potency does the source give for `CNc1cc(C(F)(F)F)nc(-c2ccccn2)n1` here?
Its Potency is inconclusive [inhibitor, single point].

Which Potency does the source give for `Cc1ccc(-c2cc(C(=O)Nc3ccc(S(=O)(=O)Nc4onc(C)c4C)cc3)c3ccccc3n2)cc1` here?
The Potency was inconclusive [inhibitor, single point].

With `CC(C)n1c(CN(C)Cc2ccccc2)nc2c1c(=O)n(C)c(=O)n2C` as the compound, how does the “activity change, negative = inhibition” value read?
The value was inactive: 2.1%.

Which “activity change, negative = inhibition” value does the source give for `COC(=O)C1C(c2ccc(N(C)C)cc2)C(C(=O)OC)S(=O)(=O)CS1(=O)=O` (stereo unspecified) here?
The value was inactive: 0.754%.

For `COc1ccc2cc(C3c4cc(OC)c(OC)cc4CCN3C(=O)c3ccco3)c(=O)[nH]c2c1` (stereo unspecified), which Potency is on record?
The Potency was active: 5.22 µM.

For `CCOC(=O)[C@H]1[C@H]2COc3ccc(C)cc3[C@@H]2N2C(=O)CN(Cc3ccc(OC)cc3)C(=O)[C@@]12C`, which Potency is on record?
The Potency was inconclusive [inhibitor, partial curve, poor fit].

With `CC1=CC(C)C(/C=N/n2cnnc2)C(C)C1` (stereo unspecified) as the compound, how does the Potency read?
Its Potency is inconclusive [inhibitor, full curve, poor fit].

For `Clc1cccc(Nc2ncnc3c2cnn3-c2ccccc2)c1`, which “activity change, negative = inhibition” value is on record?
Its value is inactive: -69.2%.

Which Potency does the source give for `COc1cc(-c2cc(-c3ccccc3)nc(SCC(=O)Nc3nccs3)c2C#N)cc(OC)c1OC` here?
The Potency was active: 1.17 µM.

For `Cc1ccc(C)c(C(C)NC(=S)NCc2ccc(F)cc2)c1` (stereo unspecified), which Potency is on record?
Its Potency is active: 3.29 µM.

For `N#CCC(=O)Nc1ccc(C(=O)NCCC(c2ccccc2)c2ccccc2)cc1`, which Potency is on record?
The Potency was inconclusive [inhibitor, partial curve].

With `CCN(CC)CCN1C(=O)c2ccccc2NC1c1ccc(C)cc1` (stereo unspecified) as the compound, how does the Potency read?
Its Potency is active: 1.65 µM.

With `CCn1nc(C(=O)OCC(=O)c2c[nH]c3ccccc23)c2ccccc2c1=O` as the compound, how does the Potency read?
The Potency was active: 4.65 µM.

For `Cn1cc(CNC(=O)/C=C/c2ccc(Cl)cc2)cn1`, which “activity change, negative = inhibition” value is on record?
Its value is inactive: 7.89%.

With `O=C(COc1ccccc1)N1CCN(c2ncnc3c2cnn3-c2ccccc2)CC1` as the compound, how does the Potency read?
The Potency was inconclusive [inhibitor, single point].

With `CC(C)(C)c1ccc(C(=O)Nc2cnccn2)cc1` as the compound, how does the “activity change, negative = inhibition” value read?
Its value is inactive: 182%.

Which Potency does the source give for `Cc1ccc(C(=O)Nc2ccc(N3CCN(C(=O)c4ccco4)CC3)cc2)c(Cl)c1` here?
The Potency was active: 13.1 µM.

For `Cc1cc(NC(=O)c2sccc2C)n(-c2nc3ccccc3[nH]2)n1`, which Potency is on record?
Its Potency is inconclusive [inhibitor, single point].

Which Potency does the source give for `Cc1ccc(NC(=O)c2ccc3c(c2)CCN3S(C)(=O)=O)c(C)c1` here?
Its Potency is inconclusive [inhibitor, partial curve].

With `COc1ccc(C(=O)N[C@H]2CCCCNC2=O)cc1OC1CCN(C(C)C)CC1` as the compound, how does the “activity change, negative = inhibition” value read?
The value was inactive: 35.6%.

For `C#CCOc1ccc2ccccc2c1/C=C(/C#N)c1ccc(C(=O)O)cc1`, which Potency is on record?
Its Potency is inconclusive [inhibitor, full curve, poor fit].

For `O=[N+]([O-])c1ccc(Oc2cccc(F)c2)c2ccncc12`, which Potency is on record?
Its Potency is inconclusive [inhibitor, single point].

With `CSc1ccccc1NC(=O)COC(=O)CCc1ccccc1` as the compound, how does the “activity change, negative = inhibition” value read?
Its value is inactive: 11.8%.

For `COc1ccc(-n2c(Cc3cccn3C)nnc2SCC(=O)Nc2cccc(OC)c2)cc1`, which Potency is on record?
The Potency was inconclusive [inhibitor, single point].

With `CCN(CC)c1ccc(/C=N/NC(=O)c2nnn(-c3nonc3N)c2-c2ccc(C)cc2)cc1` as the compound, how does the Potency read?
Its Potency is inconclusive [inhibitor, partial curve].

For `CCOc1ccc(C)cc1S(=O)(=O)NC1CCCCCC1`, which Potency is on record?
The Potency was inconclusive [inhibitor, single point].

For `COC(=O)c1[nH]c2cccc(OC)c2c1NC(=O)CCN1CCN(c2ccccc2OC)CC1`, which Potency is on record?
The Potency was inconclusive [inhibitor, partial curve, poor fit].

Which Potency does the source give for `CCOC(=O)/C=C/C(=O)N1CCN(C(=O)/C=C/C(=O)OCC)CC1` here?
The Potency was inconclusive [inhibitor, partial curve, poor fit].

With `COc1ccc(-c2nn(CCC#N)cc2C(=O)Nc2ccccc2Cl)cc1` as the compound, how does the Potency read?
Its Potency is inconclusive [inhibitor, full curve, poor fit].

For `N#Cc1ccc(N2CCCNCC2)nc1`, which “activity change, negative = inhibition” value is on record?
The value was inactive: 2.95%.

Which Potency does the source give for `CCOc1cccc(/C=C/c2ccc3cccc(O)c3n2)c1OC` here?
Its Potency is inconclusive [inhibitor, single point].

Which Potency does the source give for `Cc1oc(-c2ccccc2F)nc1CS(=O)(=O)CC(=O)NCCN1CCCC1` here?
The Potency was inconclusive [inhibitor, single point].

Which Potency does the source give for `Cc1cccc(-n2cc(-c3ccccc3)c3c(N4CCOCC4)ncnc32)c1` here?
Its Potency is inconclusive [inhibitor, single point].

With `CSCCNC(=O)c1ccc(OC2CCN(CCc3ccccc3)CC2)cc1` as the compound, how does the Potency read?
The Potency was inconclusive [inhibitor, single point].

Which Potency does the source give for `COc1ccccc1/C=C/C=N/NC(=O)c1cccs1` here?
The Potency was inconclusive [inhibitor, single point].

For `c1ccc2sc(C3CCN(Cc4nnnn4Cc4ccc5c(c4)OCO5)CC3)nc2c1`, which Potency is on record?
The Potency was inconclusive [inhibitor, single point].

For `Cn1c(=O)c2c(nc(SCCNS(=O)(=O)c3ccccc3)n2C)n(C)c1=O`, which Potency is on record?
Its Potency is inconclusive [inhibitor, partial curve, poor fit].

With `COC(=O)c1ccccc1NC(=O)c1noc2c1CCCC2` as the compound, how does the “activity change, negative = inhibition” value read?
Its value is inactive: 29.9%.

With `COC(=O)c1cc(OC)c(OC)cc1NC(=O)c1c(-c2ccccc2Cl)noc1C` as the compound, how does the Potency read?
Its Potency is inconclusive [inhibitor, partial curve].

With `CCCN(c1ccccc1C(=O)O)S(=O)(=O)c1ccc2c(c1)n(C)c(=O)n2C` as the compound, how does the “activity change, negative = inhibition” value read?
The value was inactive: -17.2%.

Which “activity change, negative = inhibition” value does the source give for `COc1nccnc1NS(=O)(=O)c1ccc(N/C=C2\CCCCC2=O)cc1` here?
The value was inactive: 5.58%.

Which “activity change, negative = inhibition” value does the source give for `Cc1ccccc1NC(=O)CNC(=O)c1ccc(C(F)(F)F)cc1` here?
The value was inactive: 16.6%.

Which “activity change, negative = inhibition” value does the source give for `CCOC(=O)/C(=N/O)C1=NC(C)(C)Cc2cc(C)c(C)cc21` here?
Its value is inactive: 6.57%.

For `Cc1cccc(NC(=O)CN(CC2CCCO2)C(=O)c2oc3ccc(F)cc3c2C)c1C` (stereo unspecified), which Potency is on record?
Its Potency is inconclusive [inhibitor, single point].

Which Potency does the source give for `c1ccc(C(c2ccccc2)c2nc(-c3cccnc3)no2)cc1` here?
The Potency was inconclusive [inhibitor, single point].

Which Potency does the source give for `O=C(Nc1ccc(S(=O)(=O)NCCc2ccccc2)cc1)c1ccc(Br)o1` here?
Its Potency is inconclusive [inhibitor, single point].

With `CCOC(=O)c1c(NC(=O)C(C)Sc2nnc(C)c(=O)[nH]2)sc2c1CCCC2` (stereo unspecified) as the compound, how does the “activity change, negative = inhibition” value read?
Its value is inactive: 11.3%.

With `COc1cccc(CN2CCN(Cc3c(C)nn(C(C)C)c3C)CC2CCO)c1` (stereo unspecified) as the compound, how does the “activity change, negative = inhibition” value read?
Its value is inactive: -1.01%.

With `COc1cc(C(=O)Nc2ccc3c(c2)ncn3C(C)(C)C)cc(OC)c1OC` as the compound, how does the Potency read?
Its Potency is inconclusive [inhibitor, partial curve].

Which Potency does the source give for `CCN(CC)S(=O)(=O)c1ccc(N2CCCC2)c(NC(=O)c2ccc(OC)cc2OC)c1` here?
Its Potency is active: 13.1 µM.

With `CCOc1cc(/C=C(\CC(=O)O)c2nc3ccccc3s2)ccc1OC` as the compound, how does the Potency read?
Its Potency is inconclusive [inhibitor, partial curve, poor fit].

For `O=C1c2sc3nc4ccccc4n3c2C(=O)N1c1ccccc1Cl`, which Potency is on record?
Its Potency is inconclusive [inhibitor, single point].

Which “activity change, negative = inhibition” value does the source give for `O=S(=O)(c1ccc(S(=O)(=O)N2CCCC2)cc1)N1CCCCC1` here?
The value was inactive: 21.4%.

Which Potency does the source give for `Cc1ccc(C(CNS(=O)(=O)c2ccc(Br)cc2)N2CCN(C)CC2)cc1` (stereo unspecified) here?
Its Potency is inconclusive [inhibitor, single point].

With `COC(=O)c1[nH]c2ccc(F)cc2c1NS(=O)(=O)c1ccc(F)c(C)c1` as the compound, how does the Potency read?
Its Potency is inconclusive [inhibitor, single point].

With `O=C(Nc1ccc(-n2nncc2-c2ccco2)cc1)c1cccc(F)c1` as the compound, how does the “activity change, negative = inhibition” value read?
Its value is inactive: -26.2%.

With `CN(C(=O)COC(=O)/C=C/c1ccc(Cl)c(Cl)c1)c1c(N)n(Cc2ccccc2)c(=O)[nH]c1=O` as the compound, how does the Potency read?
The Potency was inconclusive [inhibitor, single point].

Which “activity change, negative = inhibition” value does the source give for `O=C(NCCC1CCCCN1S(=O)(=O)c1ccccc1)C(=O)NCC1CCCO1` (stereo unspecified) here?
Its value is inactive: 31.8%.

For `Oc1cccc(/C=N/Nc2ccc(Cl)nn2)c1O`, which Potency is on record?
The Potency was active: 0.415 µM.

For `Cc1cc(C)nc(SCc2ccc(C(=O)N/N=C/c3ccc(C(=O)O)cc3)cc2)n1`, which Potency is on record?
Its Potency is inconclusive [inhibitor, partial curve].

For `Cc1ccc2[nH]c(=O)c(CN(CC3CCCO3)C(=O)c3ccncc3)cc2c1` (stereo unspecified), which Potency is on record?
The Potency was inconclusive [inhibitor, single point].

Which Potency does the source give for `CCCC1(c2ccccc2)NC(=O)N(CC(=O)Nc2sc(-c3ccccc3)cc2C(=O)OCC)C1=O` (stereo unspecified) here?
The Potency was inconclusive [inhibitor, full curve].

Which Potency does the source give for `Oc1ccccc1-c1nc(NCCN2CCOCC2)c2ccccc2n1` here?
The Potency was inconclusive [inhibitor, single point].

For `Cc1cc(C)cc(OCC(=O)Nc2nc(-c3ccccn3)cs2)c1`, which Potency is on record?
Its Potency is inconclusive [inhibitor, single point].

For `CCC(C(=O)NCCCN1CCN(C)CC1)n1nc(C)c2sc3ccccc3c2c1=O` (stereo unspecified), which Potency is on record?
The Potency was inconclusive [inhibitor, partial curve].

Which Potency does the source give for `CN1CCN(c2ccc(Cl)cc2NC(=O)/C=C/c2cccc(F)c2)CC1` here?
The Potency was active: 9.28 µM.

For `COC(=O)c1c(N)sc2c1CCN(c1ncc(C(F)(F)F)cc1Cl)C2`, which Potency is on record?
Its Potency is inconclusive [inhibitor, single point].
